# PubChem BioAssay AID686979 (National Center for Advancing Translational Sciences (NCATS), 2013)
# The whole screen tested about 420,000 compounds, of which about 50,000 (12%) were called active. The inconclusive results got no clear call from the source; some entries with a clear call stand among them for comparison. Calls follow the shape of the dose curve; as a rule, active = well fitted inhibition curve with a large enough effect; inconclusive = small, poorly fitted or top-dose-only effect; inactive = flat fitted curve, though single readings scatter. No potency is given beside an inconclusive call; the fits are too rough.
# Assay: qHTS for Inhibitors of human tyrosyl-DNA phosphodiesterase 1 (TDP1): qHTS in cells in presence of CPT; also: nearly all actives have a fitted effect of over 55% in size
# Conditions: chicken DT40 Tdp1-/-;hTDP1 cells + 20 nM CPT, ATP luminescence, 48 h; series mostly up to 46.2 µM
# Outline: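 Chicken DT40 Tdp1-/- cells stably complemented with human TDP1 were seeded at 400 cells/well in medium containing 20 nM camptothecin, exposed to pin-transferred compounds, and grown at 37 °C for at least 48 hr. Viability was read as ATP luminescence.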
# Potency is read from the fitted curve at half-maximal effect; tags tell the direction and shape of the fitted curve.
row,Compound,Potency
1,O=C(OCc1nc2ccsc2c(=O)[nH]1)c1ccco1,inactive
2,Cc1ccc2c(CN(C)Cc3cccc(F)c3)cc(=O)oc2c1C,"inconclusive [inhibitor, single point]"
3,Cc1ccc(-n2c(=S)[nH]c3c(oc4ccccc43)c2=O)cc1,inactive
4,C=CCn1c(CNc2ccc(C)cc2)nnc1SCC(=O)N/N=C/c1ccc(O)cc1O,active: 18.4 µM
5,COc1ccc(S(=O)(=O)N(CC(=O)Nc2ccc(OC)cc2OC)c2ccc(Cl)cc2)cc1,active: 23.1 µM
6,Nc1nc(-c2ccccc2)c(CCCOc2ccc(NC(=O)CBr)cc2)c(=O)[nH]1,"inconclusive [inhibitor, single point]"
7,CC(C)CCCC(C)NC(=O)c1cc(S(=O)(=O)N2CCCCC2)ccc1N1CCOCC1 (stereo not drawn),active: 23.1 µM
8,CC1(Oc2ccc(Cl)cc2)CCN(Cc2ccc(OC(F)(F)F)cc2)C1 (stereo not drawn),"inconclusive [inhibitor, single point]"
9,O=C(Nc1ccc2oc(=O)ccc2c1)c1cc2ccccc2o1,"inconclusive [inhibitor, single point]"
10,CCOC(=O)C(C(=O)OCC)C1N=C(N)N=C2Oc3ccccc3N21 (stereo not drawn),inactive
11,COc1ccc(-n2ncc(S(=O)(=O)c3ccccc3)c2-c2ccc(Cl)cc2)cc1,active: 25.9 µM
12,COc1cccc(CN(C)C(=O)c2cccc(OC3CCN(C4CCCC4)CC3)c2)c1,"inconclusive [inhibitor, single point]"
13,O=C(Nc1ccccc1F)c1c[nH]c(=O)[nH]c1=O,inactive
14,c1ccc(CSc2nnc(-c3ccccn3)n2-c2ccccc2)cc1,"inconclusive [inhibitor, single point]"
15,COc1ccc(Nc2nc(-c3ccccc3)nc3ccccc23)c(OC)c1,"inconclusive [inhibitor, single point]"
16,CN(C)S(=O)(=O)c1ccc(C(=O)NCCN2C(=O)S/C(=C\c3cccnc3)C2=O)cc1,"inconclusive [inhibitor, partial curve]"
17,O=C(CSc1nnc(CNC(=O)C23CC4CC(CC(C4)C2)C3)n1-c1ccc(F)cc1)Nc1ccc(F)cc1,"inconclusive [inhibitor, single point]"
18,CCOC(=O)Cn1ccc(NC(=O)c2ccc(F)cc2)n1,"inconclusive [inhibitor, single point]"
19,Cc1ccc(S(=O)(=O)NC2CC(C)(C)NC(C)(C)C2)cc1C,inactive
20,O=C(CCN1C(=O)/C(=C/c2ccccc2)SC1=S)N1CCCCCC1,active: 11.6 µM
21,C[C@@H]1CCCCO[C@@H](CN(C)Cc2ccc3c(c2)OCO3)[C@@H](C)CN([C@H](C)CO)C(=O)c2cc(NS(=O)(=O)c3ccccc3)ccc2O1,active: 18.4 µM
22,COc1ccccc1CCn1c(=O)c(-c2ccc(Cl)cc2)nc2cncnc21,"inconclusive [inhibitor, single point]"
23,Cc1ccc(C(C)c2c(C)c([N+](=O)[O-])cc(C)c2[N+](=O)[O-])cn1 (stereo not drawn),"inconclusive [inhibitor, single point]"
24,CCc1ccc(OCC(=O)Nc2nnc(-c3ccco3)s2)cc1,inactive
25,COCCNc1nc(-c2ccc(N(C)C)cc2)nc2ccccc12,"inconclusive [inhibitor, single point]"

row,Compound,Potency
1,COc1ccc(-c2nc(SCC(=O)c3ccc(Br)cc3)n[nH]2)cc1,"inconclusive [inhibitor, single point]"
2,Cc1ccccc1C(=O)Oc1ccc(-c2csnn2)cc1,inactive
3,COC(=O)NC(NC(=S)Nc1ccc([N+](=O)[O-])cc1)C(Cl)(Cl)Cl (stereo not drawn),active: 7.31 µM
4,Cc1cccc(N2CC(c3nc4ccc(C)cc4[nH]3)CC2=O)c1 (stereo not drawn),inactive
5,Cc1nc2ccccc2cc1C(=O)NCc1ccc(F)cc1,"inconclusive [inhibitor, single point]"
6,O=C(C1CCN(c2ccc(N3CCOCC3)nn2)CC1)N1CCN(c2ccc(F)cc2)CC1,"inconclusive [inhibitor, partial curve]"
7,C[n+]1ccnc2ccccc21,active: 1.41 µM
8,COc1ccc(CN(C)CC(=O)NCC(=O)Nc2c(C)cccc2C)cc1,inactive
9,Cc1ccc(Cl)c(OCC(=O)Nc2cc(S(=O)(=O)N3CCOCC3)ccc2N2CCCC2)c1,active: 16.4 µM
10,CN1CCN(c2ccc(CNC(=O)C3(C)Cc4c(-c5ccc6c(c5)OCO6)ccnc4O3)cc2)CC1 (stereo not drawn),"inconclusive [inhibitor, single point]"
11,O=C(Cc1cccs1)NNC(=O)c1ccc(F)cc1,inactive
12,COc1ccc(C(=O)Nc2cc(-c3nn4c(C)nnc4s3)ccc2C)cc1,inactive
13,Cc1cc(NC(=O)Nc2ccccc2)n(C(C)(C)C)n1,inactive
14,CC1CCCN(C(=O)C2CCN(C(=O)Nc3ccccc3)CC2)C1 (stereo not drawn),inactive
15,O=C1CC(N2CCN(c3ccccc3)CC2)C(=O)N1Cc1ccc(Cl)cc1 (stereo not drawn),"inconclusive [inhibitor, single point]"
16,COc1cnc(-c2ccccc2)nc1Oc1cccc(C)c1,"inconclusive [inhibitor, single point]"
17,CCCCCCN1C[C@@H](O)[C@H](n2cc(COC(=O)c3ccccc3)nn2)C[C@@H]1c1ccc(Cl)cc1,inactive
18,COc1ccc(/C=C(/C#N)c2nc(-c3cc4ccccc4oc3=O)cs2)cc1,"inconclusive [inhibitor, single point]"
19,CCC1CN(C(=O)Nc2ccccc2C(F)(F)F)c2ccccc2O1 (stereo not drawn),inactive
20,COCCNC(=O)CSc1ccccc1C(=O)O,inactive
21,COc1ccc(C(=O)CSc2nnc(CN3CCCC3)n2-c2ccc(F)cc2)c(OC)c1,"inconclusive [inhibitor, single point]"
22,CCOc1ccc(NC(=O)CC2C(=O)N(c3ccc(C)cc3)C(=O)N2C2CCCCC2)cc1 (stereo not drawn),active: 18.4 µM
23,O=C(C1CCN(Cc2ccccc2)CC1)N1CCN(C/C=C/c2ccccc2)CC1,"inconclusive [inhibitor, single point]"
24,CC1CN(C(=O)c2cccc(COc3ccc(Br)cc3)c2)CC(C)O1 (stereo not drawn),active: 20.6 µM
25,Cc1ccc(C(O)c2ncc(-c3ccccc3F)[nH]2)c(C)c1 (stereo not drawn),"inconclusive [inhibitor, partial curve, poor fit]"

row,Compound,Potency
1,CC(C)(C)n1ncc2c(=O)n(CC(=O)Nc3ccc(Cl)cc3)cnc21,"inconclusive [inhibitor, single point]"
2,OC[C@@H]1CN(Cc2ccc(-c3ccccc3)cc2)C[C@H](n2cnc3c(NC4CC4)ncnc32)O1,"inconclusive [inhibitor, single point]"
3,CCOc1ccc(NC(=S)NCc2ccc3c(c2)OCO3)cc1,"inconclusive [inhibitor, single point]"
4,O=C1CCC(C(=O)OCC(=O)Nc2ccc(OC(F)F)cc2)=NN1,inactive
5,CCOc1ccc(N=C2Sc3nc4ccc(C)cc4cc3CN2CCOC)cc1,"inconclusive [inhibitor, single point]"
6,CC(/C=N/NC(=O)c1cc(-c2ccccc2)nc2ccccc12)=C\c1ccco1,active: 2.31 µM
7,CCOC(=O)N1CCC(N(CCN(C)C)C(=S)Nc2cccc(OC)c2)CC1,inactive
8,CCCCNC1=CC(=O)C(NCCCC)=CC1=O,active: 23.1 µM
9,CC(C)C1N(S(=O)(=O)c2ccccc2)CCN1S(=O)(=O)c1ccccc1,"inconclusive [inhibitor, single point]"
10,Cn1ccc2cc(S(=O)(=O)N3CCCC(C(=O)NCc4ccc(F)cc4)C3)ccc21 (stereo not drawn),"inconclusive [inhibitor, single point]"
11,CCCCc1cc(=O)oc2cc(OCC(=O)Nc3ccccn3)ccc12,inactive
12,COc1cccc(CN(CC2CCCO2)S(=O)(=O)c2ccc(S(=O)(=O)N(C)C)cc2)c1 (stereo not drawn),"inconclusive [inhibitor, partial curve, poor fit]"
13,COc1ccccc1C(=O)NNC(=O)C(=O)NCc1ccccc1,"inconclusive [inhibitor, single point]"
14,O=C(c1cccs1)N1CCCC(c2nc(-c3ccc(F)cc3)no2)C1 (stereo not drawn),"inconclusive [inhibitor, partial curve]"
15,O=C(Nc1cc(S(=O)(=O)N2CCCCCC2)ccc1OCC(F)(F)F)c1cnccn1,"inconclusive [inhibitor, single point]"
16,COc1ccc(C2=C/C(=C\c3ccccc3OC(C)=O)C(=O)O2)cc1,active: 20.6 µM
17,COC(=O)c1ccc(C2C=C(c3ccc(Cl)cc3)Nc3nc4ccccc4n32)cc1 (stereo not drawn),active: 9.2 µM
18,Cc1ccc(-c2noc(C3CCCN(C(=O)c4c(F)cccc4F)C3)n2)cc1 (stereo not drawn),"inconclusive [inhibitor, single point]"
19,Oc1ccc(-c2onc(C(F)(F)F)c2-c2cscn2)c(O)c1,"inconclusive [inhibitor, single point]"
20,CCOc1ccccc1NC(=O)c1ccc(C(=O)Nc2ccccc2OCC)nc1,"inconclusive [inhibitor, partial curve]"
21,COCCOC(=O)C1=C(C)OC(N)=C(C#N)C1c1cc2cccc(C)c2nc1Cl (stereo not drawn),"inconclusive [inhibitor, single point]"
22,Cc1cc(O)c2c(O)c3c(O)cccc3cc2c1,inactive
23,C[C@H](CO)N1C[C@H](C)[C@@H](CN(C)S(=O)(=O)c2ccc(-n3cccn3)cc2)OCc2cn(nn2)CCCC1=O,inactive
